PubChem BioAssay AID504339 (National Center for Advancing Translational Sciences (NCATS), 2011)
Hit rate of the full screen: of about 390,000 compounds, about 17,000 (4.4%) were called active. The inconclusive results got no clear call from the source; some entries with a clear call stand among them for comparison. The call rests on the fitted dose curve; in most records, active means well fitted inhibition curve with a large enough effect; inconclusive means small, poorly fitted or top-dose-only effect; inactive means no such curve, though single readings can be large or run the other way. A potency beside an inconclusive call is a rough fit, not a confirmed value.

What follows are compounds tested against Lysine-specific demethylase 4A (Homo sapiens) (UniProt O75164) (assay: qHTS Assay for Inhibitors of JMJD2A-Tudor Domain). Settings: AlphaScreen JMJD2A-Tudor / H3K4me3 peptide binding; activity change, negative = inhibition: at 114 µM (top of the series).
Sequence of UniProt O75164 (O75164 whole entry, looked up, the tested form may be a part): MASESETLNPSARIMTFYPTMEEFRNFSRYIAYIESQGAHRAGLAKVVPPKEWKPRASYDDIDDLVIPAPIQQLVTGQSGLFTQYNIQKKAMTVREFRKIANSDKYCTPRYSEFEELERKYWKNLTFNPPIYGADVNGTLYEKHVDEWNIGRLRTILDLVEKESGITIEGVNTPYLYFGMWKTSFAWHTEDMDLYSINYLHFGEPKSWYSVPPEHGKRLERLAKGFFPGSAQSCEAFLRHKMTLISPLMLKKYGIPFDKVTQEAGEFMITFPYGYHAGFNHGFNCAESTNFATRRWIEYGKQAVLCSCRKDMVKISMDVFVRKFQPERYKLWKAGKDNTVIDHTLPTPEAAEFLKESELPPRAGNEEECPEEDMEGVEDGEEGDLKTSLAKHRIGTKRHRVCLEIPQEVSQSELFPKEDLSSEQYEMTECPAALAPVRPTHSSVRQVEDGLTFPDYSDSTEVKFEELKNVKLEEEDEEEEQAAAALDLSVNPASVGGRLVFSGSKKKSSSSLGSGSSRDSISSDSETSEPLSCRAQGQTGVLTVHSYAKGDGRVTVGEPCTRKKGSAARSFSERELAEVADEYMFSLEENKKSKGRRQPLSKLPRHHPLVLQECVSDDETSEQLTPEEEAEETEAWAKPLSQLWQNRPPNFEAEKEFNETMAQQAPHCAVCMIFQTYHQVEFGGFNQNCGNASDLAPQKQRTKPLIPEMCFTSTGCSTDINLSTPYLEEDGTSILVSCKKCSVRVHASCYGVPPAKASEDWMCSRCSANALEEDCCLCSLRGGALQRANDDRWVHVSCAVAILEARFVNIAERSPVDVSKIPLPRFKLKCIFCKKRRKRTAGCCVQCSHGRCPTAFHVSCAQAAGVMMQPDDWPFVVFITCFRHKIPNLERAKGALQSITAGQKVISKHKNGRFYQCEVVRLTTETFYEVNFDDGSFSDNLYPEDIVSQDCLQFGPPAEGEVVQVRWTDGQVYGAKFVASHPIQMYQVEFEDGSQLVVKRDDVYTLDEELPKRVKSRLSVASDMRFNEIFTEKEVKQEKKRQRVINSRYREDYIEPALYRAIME
Further: nearly all actives have a fitted effect of over 50% in size.
On the % scale 0 is the no-effect control and ±100 the full control effect; potency means the concentration at half of the fitted maximal effect; tags describe the fitted curve by direction and shape.

| Structure (SMILES) | Potency | activity change, negative = inhibition |
| --- | --- | --- |
| CCn1nnnc1SCC(=O)N1CCCc2ccccc21 | inconclusive: 50.1 µM [inhibitor, partial curve] | – |
| COC1C=COC2(C)Oc3c(C)c(O)c4c(O)c(c(CN5CCN(C)CC5)c(O)c4c3C2=O)NC(=O)C(C)=CC=CC(C)C(O)C(C)C(O)C(C)C(OC(C)=O)C1C (stereo not drawn) | inconclusive: 79.4 µM [inhibitor, single point] | – |
| COc1ccccc1CNC(=O)C(=O)Nc1nccs1 | inconclusive: 2.82 µM [inhibitor, partial curve, poor fit] | – |
| COc1cc(/C=N/N(C)c2ccccc2)cc(Cl)c1O | active: 25.1 µM | – |
| CCN(c1ccccc1)S(=O)(=O)c1cc2c(cc1C)N(C)CCO2 | inconclusive: 39.8 µM [inhibitor, partial curve] | – |
| Cc1ccsc1C(=O)NCCc1ccco1 | inconclusive: 44.7 µM [inhibitor, partial curve] | – |
| CN1c2ccc(Cl)cc2-c2nc(SCC(=O)NCc3ccc(F)cc3)ncc2S1(=O)=O | – | inactive: -13% |
| Nc1nc(NCCN2CCOCC2)nc(NCc2ccccc2)c1[N+](=O)[O-] | – | inactive: -16.1% |
| O=C(N/N=C/c1cccnc1)c1cc(O)c(O)c(O)c1 | active: 28.2 µM | – |
| CCc1ccc2c(c1)/C(=N/N(C)C(=S)NC)C(=O)N2 | inconclusive: 7.08 µM [inhibitor, full curve] | – |
| CC1(C)CC(=O)C=C(Nc2cccc(F)c2)C1 | inconclusive: 28.2 µM [inhibitor, full curve] | – |
| COC(=O)c1ccc(CSc2ncnc3c2oc2ccccc23)o1 | – | inactive: -8.61% |
| CC(SCC(=O)O)c1nc2ccccc2[nH]1 (stereo not drawn) | inconclusive: 28.2 µM [inhibitor, single point] | – |
| COc1ccc2ccc3c(c2c1)N=CC1(O3)N(C)c2ccccc2C1(C)C (stereo not drawn) | active: 44.7 µM | – |
| COc1ccc(C(=O)CSc2nnc(COc3ccccc3)n2Cc2ccco2)cc1 | inconclusive: 56.2 µM [inhibitor, partial curve] | – |
| COc1ccc2c(c1)C1C=CCC1C(c1cc3c(cc1Br)OCO3)N2 (stereo not drawn) | active: 22.4 µM | – |
| CC(C)[C@@H](CO)NC(=O)c1ccc2c3n(nc2c1)-c1ccccc1CO3 | – | inactive: -12.5% |
| CC(C)C1Nc2c(O)cc(Cl)c([N+](=O)[O-])c2C2C=CCC21 (stereo not drawn) | active: 39.8 µM | – |
| Cc1ccc(NC(=O)C2SC(=Nc3ccccc3)C(C(=O)Nc3ccc(Cl)cc3)=C2N)cc1 (stereo not drawn) | inconclusive: 35.5 µM [inhibitor, single point] | – |
| Cc1ccc2cc(C)c3nnc(SCC(=O)NCc4ccco4)n3c2c1 | inconclusive: 44.7 µM [inhibitor, partial curve] | – |
| O=C1OC(c2ccccc2)=C/C1=C/N1CCCCC1 | inconclusive: 56.2 µM [inhibitor, partial curve] | – |
| CC(C)c1ccc(/C=C2\SC(=O)N(CC(=O)NCCCn3ccnc3)C2=O)cc1 | inconclusive: 39.8 µM [inhibitor, partial curve] | – |
| Cc1ccc(CN2CCSc3ccc(C(=O)N4CCOCC4)cc32)cc1 | – | inactive: -28.3% |

| Structure (SMILES) | Potency | activity change, negative = inhibition |
| --- | --- | --- |
| Cc1cc(/C=N/O)c(C)n1-c1ccccc1 | inconclusive: 25.1 µM [inhibitor, single point] | – |
| COc1ccc2[nH]c(C(=O)N/N=C/c3ccccc3OC)cc2c1 | inconclusive: 63.1 µM [inhibitor, partial curve, poor fit] | – |
| CCOC(=O)C1=C(CN2CCN(c3ccc(Cl)cc3)CC2)NC(=O)NC1c1ccc(OC)cc1 (stereo not drawn) | inconclusive: 17.8 µM [inhibitor, full curve, poor fit] | – |
| Cc1ccc(-n2nc3cc(C)c(NC(=O)c4ccc(-c5ccccc5)o4)cc3n2)cc1 | – | inactive: 1.31% |
| Cc1ccc(CNn2cn[nH]c2=S)cc1 | active: 8.91 µM | – |
| CC(C)OC(=O)CC(=O)c1sc2nc3c(cc2c1N)CN(C)CC3 | inconclusive: 56.2 µM [inhibitor, partial curve] | – |
| CN(Cc1ccccc1)c1nc2c(c(=O)[nH]c(=O)n2C)n1CCOc1ccccc1 | inconclusive: 79.4 µM [inhibitor, single point] | – |
| S=C(Nc1ccc2cn[nH]c2c1)Nc1ccc(Cl)cc1Cl | inconclusive: 79.4 µM [inhibitor, partial curve] | – |
| Cc1ccc(Cl)cc1NC(=O)Cn1c(=O)cc(C)c2c(C)nn(C)c21 | inconclusive: 79.4 µM [inhibitor, partial curve] | – |
| O=C1N=c2ccccc2=C1c1sc(Nc2cccc(O)c2)nc1O | inconclusive: 35.5 µM [inhibitor, partial curve] | – |
| CCCc1ccc(C2C3=C(CC(C)(C)CC3=O)NC3=C2C(=O)c2ccccc23)cc1 (stereo not drawn) | inconclusive: 10 µM [inhibitor, full curve] | – |
| CCCCCCSc1ccc(-c2nc3cc(C)ccn3c2NC2CCCCC2)cc1 | inconclusive: 79.4 µM [inhibitor, single point] | – |
| Cn1c(N/N=C/c2ccccc2)nc2sc3c(c2c1=O)CCC3 | inconclusive: 79.4 µM [inhibitor, partial curve] | – |
| Cc1oc(-c2cccc(Cl)c2)nc1CN1CCC(C(=O)NC(C)C)CC1 | – | inactive: -12.8% |
| CN(C)c1ccc(/C=C/c2nnnn2-c2ccccc2)cc1 | inconclusive: 20 µM [inhibitor, full curve, poor fit] | – |
| COc1ccc(/C=C2\SC(=S)N(CCCC(=O)Nc3ccccn3)C2=O)cc1OC | inconclusive: 6.31 µM [inhibitor, full curve, poor fit] | – |
| O=C(Cc1ccsc1)N1CCc2c([nH]c3ccccc23)C1c1ccccn1 (stereo not drawn) | inconclusive: 56.2 µM [inhibitor, partial curve] | – |
| O=S(=O)(c1ccc2c(c1)CCCN2)N1CCCC2CCCCC21 (stereo not drawn) | inconclusive: 25.1 µM [inhibitor, partial curve] | – |
| COc1ccc(Cl)cc1NC(=S)NCCc1c[nH]c2ccccc12 | active: 50.1 µM | – |
| CN(C)/N=C/c1ccc(OS(=O)(=O)c2ccccc2)cc1 | inconclusive: 79.4 µM [inhibitor, partial curve] | – |
| COc1ccc(Cl)cc1NC(=O)c1oc(C)nc1C | inconclusive: 50.1 µM [inhibitor, partial curve] | – |
| COc1ccccc1-n1c(CNC(=O)c2ccco2)nnc1SCC(=O)Nc1cc(C)ccc1C | inconclusive: 7.08 µM [inhibitor, single point] | – |
| C=CCOc1ccc(C2C(C(=O)c3cccs3)=C(O)C(=O)N2c2nnc(C)s2)cc1 (stereo not drawn) | inconclusive: 89.1 µM [inhibitor, single point] | – |

| Structure (SMILES) | Potency | activity change, negative = inhibition |
| --- | --- | --- |
| CC1NC(=O)NC1CCCCCC(=O)Nc1ccc(F)c(Cl)c1 (stereo not drawn) | – | inconclusive: -100% [inhibitor] |
| O=C(O)c1ccc(N/N=C/c2ccc(OC(=O)c3ccccc3Cl)cc2)cc1 | inconclusive: 28.2 µM [inhibitor, full curve] | – |
| O=C(COC(=O)c1ccc(S(=O)(=O)N2CCCCCC2)cc1)NCc1ccc(Cl)cc1 | – | inactive: 3.69% |
| COc1ccc(-c2csc(N(CCCN(C)C)C(=O)c3ccc(C)cc3)n2)cc1 | inconclusive: 56.2 µM [inhibitor, partial curve] | – |
| C=Cc1ccc(N=Cc2c(O)ccc3ccccc23)cc1 | inconclusive: 12.6 µM [inhibitor, partial curve] | – |
| N#C/C(=N\Nc1cccc(C(F)(F)F)c1)C(=O)c1csc(-c2cccnc2)n1 | inconclusive: 56.2 µM [inhibitor, partial curve] | – |
| CCn1c(/C=C/c2c[nH]c3ccccc23)nc2ccccc2c1=O | active: 56.2 µM | – |
| Oc1c(/C=N/c2ncn[nH]2)ccc2ccccc12 | inconclusive: 56.2 µM [inhibitor, partial curve] | – |
| COC(=O)C1=C(C)NC(C)=C(C(=O)OC)C1c1cn(-c2ccccc2)nc1-c1ccco1 | inconclusive: 44.7 µM [inhibitor, partial curve] | – |
| COC(=O)N/N=C(C)/C=C/c1ccccc1 | inconclusive: 39.8 µM [inhibitor, partial curve] | – |
| Nc1cccc2[nH]c(C(F)(F)F)nc12 | inconclusive: 39.8 µM [inhibitor, partial curve] | – |
| C[C@H](CO)N1C[C@H](C)[C@@H](CN(C)S(=O)(=O)c2ccc(F)cc2)Oc2c(NC(=O)Nc3ccc4c(c3)OCO4)cccc2C1=O | inconclusive: 56.2 µM [inhibitor, partial curve] | – |
| Cc1ccc(C(CCN(Cc2ccccc2)C(=O)c2ccco2)c2ccco2)cc1 (stereo not drawn) | active: 20 µM | – |
| COC(=O)CCC(=O)OC1(C)C(=O)C2=CN(c3ccccc3)C(c3ccc(OC)cc3)=CC2=C(Br)C1=O (stereo not drawn) | inconclusive: 56.2 µM [inhibitor, partial curve] | – |
| COc1cc(C)cc(C(=O)C=Cc2ccccc2)c1O | active: 56.2 µM | – |
| Nc1[nH]c(=O)[nH]c(=O)c1N=Nc1cccc(Cl)c1 | inconclusive: 25.1 µM [inhibitor, single point] | – |
| COc1ccccc1CNC(=O)CCNS(=O)(=O)c1ccc2[nH]c(=O)oc2c1 | active: 39.8 µM | – |
| CCC(NC(C)C)C(O)c1ccc(O)c2[nH]c(=O)ccc12 (stereo not drawn) | inconclusive: 39.8 µM [inhibitor, partial curve] | – |
| Cc1cc(NC(=O)COC(=O)CC2CCCC2)c([N+](=O)[O-])cc1C | inconclusive: 39.8 µM [inhibitor, partial curve] | – |
| Cc1cc(C(=O)N2CCN(c3ccc([N+](=O)[O-])cc3)CC2)co1 | inconclusive: 63.1 µM [inhibitor, partial curve] | – |
| Cc1cccc(S(=O)(=O)Nc2cccc(-c3ccc(N4CCCCC4)nn3)c2)c1 | – | inactive: -15% |
| Cc1ccc(NC(=O)Nc2cccc(Cl)c2)c(C(=O)O)c1 | inconclusive: 17.8 µM [inhibitor, full curve] | – |
